# From paper PMC4336329 (PLoS ONE, 2015)
# Hit rate of the full screen: of about 310,000 compounds, about 14,000 (4.5%) showed an effect of 50% or more. Effects have a minus sign here. The list shows a part of the results.
# Target: human ether-à-go-go-related gene (hERG) potassium channel (human, UniProt Q12809)
# Experiment: primary screen, population patch clamp on CHO cells stably expressing hERG
# 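Also: peak tail current of the secondary pulse compared with the same well before compound.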
# human ether-à-go-go-related gene (hERG) potassium channel, sequence (Q12809 whole entry, looked up): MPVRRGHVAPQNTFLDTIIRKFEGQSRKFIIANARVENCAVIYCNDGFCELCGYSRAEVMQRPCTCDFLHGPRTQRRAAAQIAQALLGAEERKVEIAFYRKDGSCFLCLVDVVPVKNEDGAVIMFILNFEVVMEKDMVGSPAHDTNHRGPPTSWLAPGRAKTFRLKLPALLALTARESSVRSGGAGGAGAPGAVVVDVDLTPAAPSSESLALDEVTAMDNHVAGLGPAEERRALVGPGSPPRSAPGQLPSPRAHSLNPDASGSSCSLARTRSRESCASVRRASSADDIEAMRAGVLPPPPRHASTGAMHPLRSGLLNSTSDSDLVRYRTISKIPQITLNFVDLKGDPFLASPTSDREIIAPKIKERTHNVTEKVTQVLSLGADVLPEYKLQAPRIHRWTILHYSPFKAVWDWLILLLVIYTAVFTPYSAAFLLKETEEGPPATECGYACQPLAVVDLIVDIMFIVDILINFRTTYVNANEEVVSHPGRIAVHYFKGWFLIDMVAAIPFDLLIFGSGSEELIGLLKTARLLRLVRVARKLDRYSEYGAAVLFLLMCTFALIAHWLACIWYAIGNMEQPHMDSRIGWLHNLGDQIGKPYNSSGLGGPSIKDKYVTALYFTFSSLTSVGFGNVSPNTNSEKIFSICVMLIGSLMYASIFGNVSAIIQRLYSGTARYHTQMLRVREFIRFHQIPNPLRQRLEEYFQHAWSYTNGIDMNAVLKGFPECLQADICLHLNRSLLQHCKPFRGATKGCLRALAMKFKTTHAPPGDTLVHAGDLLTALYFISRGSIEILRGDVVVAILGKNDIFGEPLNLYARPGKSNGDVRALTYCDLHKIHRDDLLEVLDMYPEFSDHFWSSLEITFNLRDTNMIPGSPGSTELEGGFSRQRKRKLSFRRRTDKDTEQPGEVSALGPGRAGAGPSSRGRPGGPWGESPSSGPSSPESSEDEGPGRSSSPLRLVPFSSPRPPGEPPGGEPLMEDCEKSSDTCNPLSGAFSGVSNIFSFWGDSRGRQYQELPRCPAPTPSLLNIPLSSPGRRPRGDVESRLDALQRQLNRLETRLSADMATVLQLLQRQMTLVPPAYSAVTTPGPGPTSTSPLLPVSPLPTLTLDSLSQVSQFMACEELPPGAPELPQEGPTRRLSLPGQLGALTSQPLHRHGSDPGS
row,Compound,"hERG current change (%, negative = inhibition) at 10uM [%]"
1,Cc1ccc(C(=O)Cn2nc(C(=O)O)c3ccccc3c2=O)cc1C,24.4
2,Cc1ccc(C)c(OCCNc2ccc([N+](=O)[O-])cn2)c1,1.78
3,Cc1ccc(CN2CCN(CC(=O)NCc3ccc(Cl)cc3)C2=O)cc1,-50.4
4,CCOc1ccccc1OCCCC(=O)N(CC)CC(=O)Nc1c(F)cccc1F,-1.78
5,CC(=O)C(=Cc1ccc(O)cc1)C(C)=O,17.3
6,CC1(C)Cc2c(C#N)c(SCC(=O)c3ccccc3)nc(N3CCOCC3)c2CS1,3.44
7,OCCCn1c(CCCNc2nc(-c3cccc(Br)c3)cs2)nc2cc(Cl)c(N3CCCCC3)cc21,1.7
8,CCOC(=O)c1cc(C#N)c(N2CCN(C)CC2)nc1-c1ccccc1,-49.2
9,O=C(CSCc1ccccc1Cl)NCCSc1ccccn1,10.6
10,Cc1cccc(/C=N/n2c(-c3cc(-c4ccccc4)n[nH]3)n[nH]c2=S)c1,16.4
11,CC(=O)N1c2ccc(S(=O)(=O)NCc3ccco3)cc2CC1C (stereo not shown),-7.2
12,CCC(=O)Nc1ccc(/C(C)=N\NC(=O)c2ccc(OC)cc2)cc1,-1.87
13,CCN(CCN(C)C)C(=O)c1ccc2c(c1NCCO)C(=O)c1ccccc1C2=O,-35.5
14,O=C(CCN1C(=O)/C(=C\c2ccccc2)SC1=S)NNC(=O)c1ccncc1,20.3
15,CCOC(=O)c1nnsc1Nc1ccc(C)c(C)c1,23.3
16,CC(C)C(NC(=S)NCc1ccccc1)C(=O)O (stereo not shown),11.3
17,Cc1cccnc1-n1c(C)nc2ccccc2c1=O,7.13
18,CC(C)(C)n1nnnc1CN1CCC(NC(=O)NC2CCCCC2)CC1,-11.3
19,Cn1cc(SCC(=O)N2CCN(c3ccccc3)CC2)c2ccccc21,-8.45
20,COc1ccc(-c2cc3c(nn2)-c2ccccc2C3=O)cc1,6.02
21,COc1ccc(OC)c(N(CC(=O)Nc2ccc3c(c2)OCCO3)S(C)(=O)=O)c1,9.64
22,CCOC(=O)c1c(C)[nH]c(C(=O)CC(=O)OC)c1C,22.4
23,Fc1ccc(-c2nnc(SCc3cccnc3)o2)cc1,-3.91

row,Compound,"hERG current change (%, negative = inhibition) at 10uM [%]"
1,O=C(Nc1nnc(-c2cccnc2)o1)c1cccc([N+](=O)[O-])c1,13.8
2,O=C(Nc1cc(Cl)cc(Cl)c1)c1cccc(OC(F)F)c1,-2.79
3,COc1ccc(C(=O)Nc2c(N)nc(SCC(=O)Nc3ccc(NC(C)=O)cc3)[nH]c2=O)cc1,21.9
4,COc1ccc(C2=NN(C(=O)CSc3nc(=O)n4cc(C)ccc4n3)C(c3ccc(C)cc3)C2)cc1 (stereo not shown),-16.2
5,CC(=O)N1[C@H](C)C=C[C@]1(Cc1ccccc1)C(=O)O,14.8
6,CC1(C)C(c2ccco2)=[N+]([O-])C2(CCCCC2=O)N1O (stereo not shown),6.75
7,Cc1ccc(NC(=O)COC(=O)[C@H](C)NC(N)=O)c(C)c1,15.1
8,O=C(c1ccccc1)N1CCN(S(=O)(=O)N2CCOCC2)CC1,16.8
9,Cc1cc(C)nc(SCc2ccc3nonc3c2)n1,-9.11
10,CCOc1ccc(/C=N/OCC(=O)NCc2ccc3c(c2)OCO3)cc1OC,14.8
11,Cn1c(=O)cc(OCC(=O)NCc2cccnc2)c2ccccc21,-2.8
12,Cc1ccc(NC(=O)CSc2nc(=O)n(CCCN3CCOCC3)c3c2CCCC3)cc1F,-50.2
13,NNC(=O)c1cc(-c2cccs2)nc2ccccc12,-2.34
14,Cc1cccn2c(=O)nc(SCC(=O)N3CCCCC3)nc12,-18.6
15,O=C(Nc1cccc(C(F)(F)F)c1)c1cnc2n(c1=O)CCS2,6.8
16,CCc1cccc(CC)c1NC(=O)COC(=O)C1(c2ccc(Cl)cc2)CCCC1,14.2
17,COCCCN1C(=O)N(c2ccc(F)cc2)C(=O)C1CC(=O)Nc1ccccc1 (stereo not shown),10.7
18,CCCC(=O)c1c(NC(C)C)cc(C)oc1=O,10.7
19,CCSc1oc(-c2ccco2)nc1S(=O)(=O)c1ccc(C)cc1,-3.01
20,Cc1c(Br)c(O)c(Br)c2sc(=O)oc12,11.9
21,O=C(Nc1cccc2c1CCCC2)C1CCN(c2nnnn2-c2ccccc2)CC1,-6.61
22,COc1cccc(N2CCN(c3nc(C)c(C)c(=O)[nH]3)CC2)c1,5.02
23,CCOc1cc(C2C(C(=O)N3CCCCC3)=C(C)NC3=C2C(=O)CC(C)(C)C3)ccc1O (stereo not shown),-1.34

row,Compound,"hERG current change (%, negative = inhibition) at 10uM [%]"
1,CCOCCCNc1ccc(N2C(=O)CCCC2=O)cc1[N+](=O)[O-],22.7
2,COc1ccc(C)cc1S(=O)(=O)Nc1ccc(F)c(Cl)c1,-6.06
3,O=c1oc(-c2ccccc2)nc2c1C1(CCCCC1)Cc1ccccc1-2,8.5
4,CC(C)(C)NCCOCCOc1ccc(Cl)cc1C(C)(C)C.O=C(O)C(=O)O,0.207
5,O=C(c1ccccc1)c1nc[nH]c1C(=O)Nc1ccccn1,11.8
6,Cc1ccc(C(=O)CSc2ccccn2)cc1,-7.25
7,S=C(NCCCN1CCOCC1)Nc1ccc(Cl)c(Cl)c1,-40.1
8,CS(=O)(=O)N(CCc1ccccc1)CC(=O)NCc1ccccc1Cl,-15.7
9,CCc1nnc(NC(=O)CSc2ccc(-c3ccc(-n4cccn4)cc3)nn2)s1,11.3
10,Cc1cc(C)c2nc(SCCC#N)nc(C)c2c1,-14.4
11,NC(=O)C1CCN(C(=O)c2ccco2)CC1,5.96
12,COc1cccc(-c2cc(N3C(=O)Nc4ccccc4N3O)n[nH]2)c1,3.16
13,Cn1cc(C(c2ccccc2OCC(=O)O)c2cn(C)c3ccccc23)c2ccccc21,3.58
14,NC(N)=Nc1nc2ccc(Cl)cc2c(=O)[nH]1,11.5
15,Cc1oc(-c2cccc(Cl)c2)nc1CN(C)C1CCOC1 (stereo not shown),0.385
16,O=C(NCc1cc(C(F)(F)F)cc(C(F)(F)F)c1)C1CC(c2ccccc2C(F)(F)F)=NO1 (stereo not shown),-5.26
17,O=C(Nc1nnc(C2CC2)s1)C1CCCO1 (stereo not shown),10
18,O=S(=O)(NCc1ccco1)c1ccc(S(=O)(=O)N2CCCCC2)cc1,-16.4
19,Cc1ccccc1-c1nc2ccc(Cl)cc2c(=O)n1O,13
20,CC(=O)c1cccc(NC(=O)c2ccc(NS(=O)(=O)c3c(C)noc3C)cc2)c1,-5.58
21,Cc1cc(OCC(O)CN2CCCC2)cc(C)c1Cl.Cl (stereo not shown),-43
22,CCCc1nn(C)c(C(=O)Nc2ccc3ccccc3c2)c1Cl,8.62
23,CC[n+]1ccc(C)c2cc(P(=O)(c3ccccc3)c3ccccc3)ccc21.[I-],12.3

row,Compound,"hERG current change (%, negative = inhibition) at 10uM [%]"
1,COc1nc(OC)nc(N2CCC(C(=O)NCC3CCCCC3)CC2)n1,-25.7
2,CCCCNC(=S)N1CCN(c2nc3ccccc3s2)CC1,18
3,CCn1nc(C(=O)Nc2ccc3nc(C)sc3c2)c2ccccc2c1=O,-10.5
4,COc1ccc(CCNC(=O)CNC(=O)c2ccc3c(c2)OCO3)cc1OC,16.8
5,C[C@H]1CN=C(Nc2ccccc2)N1CCc1ccc(F)cc1,-46.3
6,O=[N+]([O-])c1ccc(NCCCN2CCOCC2)c(Cl)c1,-31.8
7,CNC(=O)COC(=O)c1ccc(OCC(=O)Nc2ccccc2OC)c(OC)c1,6.61
8,CC(=O)N1CCN(c2ncnc3sc(-c4ccccc4)cc23)CC1,-44.4
9,Cc1ccc(C(=O)NCCN2C3=NC[C@H](Cc4ccc(O)cc4)N3C[C@H]2Cc2ccc(O)cc2)cc1Br,-51.7
10,O=c1oc2c3c4c(cc2s1)CCCN4CCC3,5.4
11,O=C(CCc1nnc(C2(c3ccc(Cl)cc3)CCC2)o1)N1CCCC(O)C1 (stereo not shown),4.36
12,O=C(O)CSCC(=O)Nc1ccc(C(F)(F)F)cc1,14.9
13,Cl.OC(CNCc1ccncc1)c1ccccc1 (stereo not shown),6.97
14,CC(C)Nc1nc(SCC(=O)Nc2ccccc2)nc(N2CCOCC2)n1,-12.7
15,COc1ccc(Cn2c(=O)n(Cc3ccco3)c(=N)c3c4c(sc32)COC(C)(C)C4)cc1,-15.9
16,COc1ccc(C(NC(=O)c2ccco2)c2ccc(OC)c(OC)c2)cc1OC,-3.65
17,CC(=O)Nc1cccc2c1C(=O)N(c1ccc(OC(C)=O)cc1)C2=O,12.5
18,O=C(Cn1nnc2ccccc2c1=O)N[C@@H](Cc1c[nH]c2ccccc12)C(=O)O,17.9
19,COc1ccc(C(=O)Oc2ccc3ccc(=O)oc3c2)cc1OC,11.2
20,CNC(=O)c1c2c(nc3ccc(Br)cc13)CCCC2,1.9
21,CN1C=CC=C/C1=C1\SC(=S)N(c2ccccc2)C1=O,-2.01
22,Cc1ccc(-c2nc(-c3ccccn3)no2)cc1,-14
